Out of some 410,000 compounds screened, about 6,400 (1.6%) were called active. Inconclusive means that the source gave no clear call. Such entries were picked first, then a sample of the others. The call rests on the fitted dose curve; in most records, active means well fitted inhibition curve with a large enough effect; inconclusive means small, poorly fitted or top-dose-only effect; inactive means no such curve, though single readings can be large or run the other way. Potencies beside an inconclusive call are fits to weak or partial responses and may not hold up.
biological target: Glucagon-like peptide 1 receptor (Homo sapiens) (UniProt P43220); assay: qHTS of GLP-1 Receptor Inverse Agonists (Inhibition Mode); settings: HEK293 GLP-1R CRE-luciferase, luminescence, 24 h, GLP-1R form is constitutively active; activity change, negative = inhibition: at 38.3 µM (top of the series) unless noted; further: nearly all actives have a fitted effect of over 55% in size
Summary of the method: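 Cells are plated, allowed 12 hours at 37 deg C, then treated with compounds for 24 hr before luciferase detection reagent is added and luminescence is read after 12 min at room temperature. The HEK293 line carries constitutively active GLP-1R with a cAMP-responsive reporter.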
On the % scale 0 is the no-effect control and ±100 the full control effect; potency means the concentration at half of the fitted maximal effect; tags describe the fitted curve by direction and shape.

Sequence of UniProt P43220 (P43220 whole entry, looked up): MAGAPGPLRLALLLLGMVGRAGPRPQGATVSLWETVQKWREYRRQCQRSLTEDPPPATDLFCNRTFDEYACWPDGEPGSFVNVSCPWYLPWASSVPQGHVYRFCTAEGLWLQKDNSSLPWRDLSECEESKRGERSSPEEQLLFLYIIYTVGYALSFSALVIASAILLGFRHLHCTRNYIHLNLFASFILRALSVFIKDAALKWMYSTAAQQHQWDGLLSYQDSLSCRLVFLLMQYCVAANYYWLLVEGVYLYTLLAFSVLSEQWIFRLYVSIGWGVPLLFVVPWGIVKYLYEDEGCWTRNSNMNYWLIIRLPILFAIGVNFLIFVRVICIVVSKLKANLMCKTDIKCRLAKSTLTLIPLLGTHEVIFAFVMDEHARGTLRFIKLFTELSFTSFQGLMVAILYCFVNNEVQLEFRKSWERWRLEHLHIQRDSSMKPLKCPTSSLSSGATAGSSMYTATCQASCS

Potency, inconclusive:
O=C(Nc1ccccc1F)c1ccc(CN2CCc3ccccc3C2)cc1 11.2 µM [inhibitor, single point]
Cc1ccc(C(=O)Cn2nnc3ccccc32)cc1 12.6 µM [inhibitor, single point]
COC(=O)c1c(NC(=O)/C=C/C(=O)O)sc(C)c1-c1ccc(C)c(C)c1 12.6 µM [inhibitor, partial curve]
CCOCCCN(C(=O)Cn1nnc(-c2ccc(C)o2)n1)C(C(=O)NC1CCCC1)c1ccc(C)o1 (stereo unspecified) 10 µM [inhibitor, partial curve, poor fit]
Cc1ccccc1CNC(=O)c1cc(COc2ccc(F)cc2F)on1 12.6 µM [inhibitor, single point]
CCOc1ccccc1NC(=O)COc1ccc(S(=O)(=O)NC2CCCCC2)cc1 28.2 µM [inhibitor, single point]
CCCCSc1nc(O)c(C2OC(=O)c3c2ccc(OC)c3OC)c(=O)n1-c1ccccc1 (stereo unspecified) 7.94 µM [inhibitor, partial curve]
OCCC1CN(Cc2ccc(F)cc2)CCN1CCCc1ccccc1 (stereo unspecified) 8.91 µM [inhibitor, partial curve, poor fit]
CCn1c(CN2CCCCC2)nc2cc(NC(=O)c3ccc([N+](=O)[O-])cc3)ccc21 1.58 µM [inhibitor, full curve, poor fit]
CC(=O)N1c2ccccc2N2C(c3c(C)c(C)cc(C)c3C)=NON12 20 µM [inhibitor, single point]
CC(=O)N1CCN(C(=S)Nc2ccc(Oc3ccccc3)cc2)CC1 31.6 µM [inhibitor, single point]
Cc1cccc(C)c1NC(=O)CN(C)C(=O)c1cccc(S(=O)(=O)N2CCN(c3ccc(F)cc3)CC2)c1 28.2 µM [inhibitor, single point]
CC(C)Cc1ccc(C(C)C(N)=NCCc2ccccc2)cc1 (stereo unspecified) 7.94 µM [inhibitor, partial curve, poor fit]
COc1ccc(/C=C2/SC(=S)N(Cc3ccccc3)C2=O)cc1O 2.24 µM [inhibitor, full curve, poor fit]
CCc1cccc(NC(=O)CCSCCC(=O)Nc2cccc(CC)c2)c1 8.91 µM [inhibitor, partial curve, poor fit]
CN(C(=O)c1ccc2c(c1)OCO2)C1(C(=O)NC2CCCCC2)CCCCC1 14.1 µM [inhibitor, single point]
CC1CC(C)CN(C/C=C/c2ccccc2[N+](=O)[O-])C1 (stereo unspecified) 28.2 µM [inhibitor, single point]
CC1(OC(=O)C2CCCC2)C(=O)C=C2C=C(c3ccsc3)N(C3CCCCC3)C=C2C1=O (stereo unspecified) 10 µM [inhibitor, partial curve, poor fit]
O=C(N/N=C/c1cccc(F)c1)c1csc2c1CCCC2 28.2 µM [inhibitor, single point]
COc1ccc(-c2c(C#Cc3ccsc3)c3ccccc3n2C)cc1 8.91 µM [inhibitor, partial curve, poor fit]
O=C(Nc1cc(Sc2nc3ccccc3s2)cc([N+](=O)[O-])c1)c1ccccc1 7.94 µM [inhibitor, partial curve, poor fit]
Cc1c(C(=O)NCc2ccc3c(c2)OCO3)oc2ccc(S(=O)(=O)N3CCCC3)cc12 14.1 µM [inhibitor, single point]
O=C(Cc1ccccc1)NCCS(=O)(=O)N1CCN(c2cccc(Cl)c2)CC1 28.2 µM [inhibitor, single point]
Cc1ccc(S(=O)(=O)N2CCC(=O)N([C@H](COCc3ccc(Cl)cc3)C(C)C)CC2)cc1 28.2 µM [inhibitor, single point]
Cc1ccc(Cl)cc1C1=CC(=O)C[C@H](c2ccc(F)cc2)C1 14.1 µM [inhibitor, single point]
COc1ccccc1/C=C/C(=O)OCC(=O)Nc1c(C)nn(-c2ccccc2)c1C 10 µM [inhibitor, single point]
CCOc1ccc2nc(SCc3ccc(F)cc3)sc2c1 15.8 µM [inhibitor, single point]
O=C(Nc1ccccc1)C1=C[C@H](c2ccc(C(F)(F)F)cc2)C[C@H](OCCCCO)O1 12.6 µM [inhibitor, single point]
O=C(CN(Cc1ccco1)Cc1cccs1)N1CCN(S(=O)(=O)c2cccc(F)c2)CC1 28.2 µM [inhibitor, single point]
Cc1ccc2ccc3cc(C(=O)N4CCN(c5ccccc5)CC4)nc3c2[nH]1 10 µM [inhibitor, single point]
Cc1ccc(C23CC4CC(CC(NC(=O)N5CCN(C)CC5)(C4)C2)C3)cc1 7.08 µM [inhibitor, partial curve, poor fit]
O=C1N=C(N2CCCCC2)S/C1=C\c1ccccc1F 31.6 µM [inhibitor, single point]
Cc1ccc(C(=O)c2coc3ccc(O)cc23)cc1 28.2 µM [inhibitor, single point]
CC1CCc2ccccc2N1C(=O)c1cccs1 (stereo unspecified) 2.51 µM [inhibitor, partial curve, poor fit]
Cc1ccc(C(=O)NNC2CC(=O)N(c3ccc4c(c3)OCCO4)C2=O)cc1 (stereo unspecified) 5.62 µM [inhibitor, partial curve, poor fit]
Cc1cccc(C(=O)Nc2nc(-c3nnn(-c4cc(F)ccc4F)c3C)ns2)c1 11.2 µM [inhibitor, partial curve, poor fit]
CCOc1ccc(S(=O)(=O)NCc2ccccn2)cc1NC(=O)c1ccccc1 1 µM [inhibitor, full curve, poor fit]
Cc1ccc(-n2cc(CN3CCC(O)(c4ccccn4)CC3)c(-c3ccc(F)cc3)n2)cc1 11.2 µM [inhibitor, partial curve, poor fit]
CCOC(=O)c1ccc(NC(=S)NC(=O)C2CCCC2)cc1 12.6 µM [inhibitor, partial curve, poor fit]
COc1cc(N2CCCC2)c(OC)cc1/C=C(/C#N)c1cccc(F)c1 7.08 µM [inhibitor, partial curve]
Cc1ccc(NC(=O)C2CC3CCC2C3)c(Br)c1 (stereo unspecified) 22.4 µM [inhibitor, single point]
CC(=O)CC(=O)Nc1ncc(C(F)(F)F)cc1Cl 1.58 µM [inhibitor, full curve, poor fit]
CSCC[C@H](NC(=O)c1cccc(S(=O)(=O)N2CCCCCC2)c1)c1nc2ccccc2[nH]1 11.2 µM [inhibitor, single point]
Cc1ccccc1NC(=S)N/N=C1\CC(C)(C)Oc2ccc(O)cc21 2.51 µM [inhibitor, full curve]
CCOc1ccccc1NC(=O)Cc1coc2cc(C)ccc12 10 µM [inhibitor, partial curve, poor fit]
COc1ccccc1-c1sc2ccccc2c1C#CC1(O)CCCCC1 28.2 µM [inhibitor, single point]
O=S(=O)(NCc1ccccc1Cl)c1ccc(N2CCCCS2(=O)=O)cc1 28.2 µM [inhibitor, single point]
CN(C)C(=S)N=Nc1[nH]c2ccccc2c1O 2 µM [inhibitor, full curve, poor fit]

Potency, active:
CCCCN1C(=O)N(CCc2ccc(F)cc2)S(=O)(=O)c2cc(C(F)(F)F)ccc21 10 µM

Activity change, negative = inhibition, inactive:
CC(=O)Nc1ccc(S(=O)(=O)NCCC(=O)OC(C)C(=O)c2ccc(C)cc2)cc1 (stereo unspecified) -7.26%
CCN(CC)c1ccc(/C=N/NC(=O)CC(C)C)cc1 -4.73% [at 0.307 µM]
NC(=O)c1oc2ccccc2c1NC(=O)c1nc2ccccc2s1 54.3%
CC(C)CCn1cnc2c(cnn2-c2ccc(F)cc2)c1=O 5.17%
Cc1noc(C)c1S(=O)(=O)N1CCCC(C(=O)N2CCC(C)CC2)C1 (stereo unspecified) 7.95%
CCc1ccc(CNC(=O)CCn2c(=O)c3cccn3c3ccc(F)cc32)cc1 10.8%
CC(C)CNS(=O)(=O)c1ccc(S(=O)(=O)NC2CCOC(C)(C)C2)cc1 (stereo unspecified) 0%
c1coc(-c2cc3nc(NC4CCCCC4)ccn3n2)c1 -23.2%
Cc1nnc(NC(=O)CSc2nnnn2Cc2ccccc2)s1 13.6%
CC(C)N(C(=O)CSc1nc2ccccc2n1-c1ccccc1)C(C)C -29%
CC(=O)Nc1ccc(-c2nnc(SCC(=O)c3ccc([N+](=O)[O-])cc3)o2)cc1 11.4%
COc1ccccc1OCCn1nnc2ccccc21 8.13%
O=C(NCCc1ccccc1)c1cccc(NC(=O)C2CCCC2)c1 -21.1%
CC(CNC(=O)Cn1cnc2c(NCc3ccccc3)ncnc21)c1ccccc1 (stereo unspecified) 2.47%
O=C(CN1C(=O)COc2ccccc21)NCCN1CCCC1 -8.87%
O=C(N/N=C/c1cc(Br)c(Br)s1)c1ccncc1 4.23% [at 0.307 µM]
COc1ccc(N2CCN(C3C(=O)Nc4ccccc4-n4nnnc43)CC2)cc1 (stereo unspecified) 15.3%

Source: PubChem BioAssay AID624417 (National Center for Advancing Translational Sciences (NCATS), 2012)
